Data reported in the BET-seq Pho4 binding data (Le et al. 2018).
The other results are listed elsewhere or left out. Values were computed here from the reads of four pooled replicates and scatter widely.

Target: T1, Pho4 (S. cerevisiae) (UniProt P07270)
T1 sequence: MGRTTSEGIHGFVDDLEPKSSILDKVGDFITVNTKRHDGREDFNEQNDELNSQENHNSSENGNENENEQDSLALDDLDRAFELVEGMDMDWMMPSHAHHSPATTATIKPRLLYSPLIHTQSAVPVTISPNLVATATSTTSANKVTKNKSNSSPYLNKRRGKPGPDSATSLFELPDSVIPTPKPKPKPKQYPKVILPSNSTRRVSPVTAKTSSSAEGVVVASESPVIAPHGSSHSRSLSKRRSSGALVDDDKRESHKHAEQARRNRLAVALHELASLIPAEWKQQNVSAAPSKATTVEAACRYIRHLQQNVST
Test: relative binding free energy (BET-seq); higher = weaker binding
Conditions: reference: library average

Sequence	relative binding free energy [kcal/mol]
GTGGTCACGTGTATGA	0.17
TGTCTCACGTGAGTAA	0.52
TGTTGCACGTGACTGA	-0.04
AGTATCACGTGGCGTT	-0.03
CATGGCACGTGATGTG	-0.16
ATAGGCACGTGGAGGC	-0.08
ATATGCACGTGTGCTG	-0.13
CTATACACGTGTGTGG	0.01
AGCTTCACGTGATTGT	0.22
TGTTACACGTGCTGTA	-0.01
GTAGTCACGTGGATTG	-0.01
TCAGGCACGTGGAGGA	-0.08
AAGTTCACGTGAGTGC	0.45
CGTTGCACGTGGGGAC	-0.19
TTGTTCACGTGCGTAT	0.23
TTTATCACGTGTGGCT	0.27
TCGAACACGTGGTGTG	-0.05
TGTTTCACGTGCCGCT	0.25
AGTACCACGTGTTGGA	-0.07
TAAAGCACGTGTATTA	-0.07
TTTTGCACGTGGGGTA	-0.14
AGGCACACGTGTTGGA	0.16
TCAGTCACGTGTAATT	0.22

Sequence	relative binding free energy [kcal/mol]
CGATGCACGTGGGTAA	-0.17
TTTATCACGTGAAATA	0.36
TATGGCACGTGTGCTC	-0.06
TGTAGCACGTGTAGTG	0
GTAAGCACGTGTTGTG	-0.03
TGTTTCACGTGAAAAA	0.49
AGGTGCACGTGAAAGG	0.12
TGGGTCACGTGTTTGG	0.14
ATTTGCACGTGTGAGC	0.04
GTCAACACGTGAGTGG	0.18
AGTGCCACGTGTTAGT	-0.06
GGGTGCACGTGTGCTG	0.04
ACATTCACGTGGGGCT	0.2
AATTTCACGTGGCGTG	0.18
GTGTGCACGTGGACGG	-0.01
TGCGGCACGTGAATGG	0.15
GGTATCACGTGCTTTG	0.08
AGAGTCACGTGATTAA	0.32
TTGCGCACGTGTTGCG	-0.16
CTTAGCACGTGTAGGG	-0.07
TTTAACACGTGCGTTT	-0.13
GTATTCACGTGTGCGT	0.39
GGTTGCACGTGATATA	0.16

Sequence	relative binding free energy [kcal/mol]
GGAGGCACGTGAAAGT	0.28
ATAGGCACGTGGTGTT	-0.17
AGGTGCACGTGCTTAG	-0.31
TCTGGCACGTGTGGCC	0.07
TGAGGCACGTGGCGAT	-0.22
TGAGTCACGTGTAGTA	0.16
AGGGCCACGTGGTTGC	-0.17
TGGTGCACGTGGGACG	-0.17
ATTGGCACGTGTTGTC	-0.03
TATACCACGTGTTTGG	-0.14
TAAGTCACGTGTGTAG	-0.06
AATGGCACGTGTTAAG	0.02
AGAATCACGTGAGTGT	0.21
GGGAACACGTGTTATT	0.01
TTTGTCACGTGCACTG	-0.03
ATCTGCACGTGATGTA	0.14
ATGTCCACGTGGAGAG	0.11
AATTGCACGTGATGTA	-0.07
GCTGTCACGTGGTAAG	0.12
AGGTTCACGTGGAAAG	0.32
GCTCGCACGTGGGTAG	-0.11
ATGCGCACGTGGGTCA	-0.24
GATGGCACGTGGTGAA	0.04

Sequence	relative binding free energy [kcal/mol]
TGGGACACGTGGAGGA	0.03
AGATACACGTGCGTGG	-0.05
GTGAACACGTGTAGTT	0.05
TTTAGCACGTGTCGAA	-0.03
TCGGTCACGTGAAGAG	0.15
CATTACACGTGTGTTT	0.18
ATGTTCACGTGAAGTC	0.55
TAGGACACGTGTGTTA	0
CTTTTCACGTGTCTAG	0.24
TAGGCCACGTGTATGG	-0.06
ATTTGCACGTGGTAGC	-0.04
TTATACACGTGTACGG	-0.04
GGTTTCACGTGCAGAA	0.36
TGTTACACGTGTCATG	0.05
AGGTCCACGTGACGGG	0
TTACTCACGTGTTTGA	0.14
ATAGTCACGTGGACAG	0.16
GTTATCACGTGAAGGT	0.36
GAGAACACGTGTATTG	0.2
AATGGCACGTGTACGG	-0.02
ATTTTCACGTGGGGCA	0.05
CTTCGCACGTGGGTTT	-0.07
GATGGCACGTGATTGG	0.07

Sequence	relative binding free energy [kcal/mol]
CGATGCACGTGTCGGT	0.13
GTTTTCACGTGGCGGA	0.32
TTGGGCACGTGTCGTT	-0.11
CATCGCACGTGAGTGG	0.17
AGTTACACGTGGGTTG	-0.1
ATCAACACGTGGTGGT	0.03
TCTGGCACGTGTGGAG	0.03
AGTAACACGTGTGGGG	0.07
AAGAGCACGTGTTCGG	-0.13
GCGGTCACGTGTAATG	0.31
GGTGGCACGTGAATGG	0.24
TTGGGCACGTGCGGGA	-0.09
TAGGGCACGTGCCGTA	-0.12
TGGTCCACGTGTGGTT	0.09
TCGCGCACGTGGCGGG	-0.27
TTTGTCACGTGTTCCT	0.09
TGAGTCACGTGTAAAG	0.23
GTTGTCACGTGTCATG	0.26
AGATGCACGTGCTGGT	-0.19
ATTAACACGTGTGGCG	-0.01
GGCGCCACGTGCTGGG	-0.11
CGTGTCACGTGTGTTT	0.05
TAGCGCACGTGGGGTA	-0.34
